Reference: the supplement of paper PMC4604168 (melanoma cell lines)
The other results are listed elsewhere or left out. Most values come without repeats; read them as rough.

Experiments:
Assay in all cases: cell count relative to DMSO control; melanoma cells; higher = more viable cells
Settings in all cases: library dose: low library concentration; 72 h; first compound 0.4 µM
COLO792 = test system: COLO792
COLO800 = test system: COLO800
COLO829 = test system: COLO829
G361 = test system: G361
IPC-298 = test system: IPC-298
IST-MEL1 = test system: IST-MEL1
LB2518-MEL = test system: LB2518-MEL
LOXIMVI = test system: LOXIMVI
MEL-HO = test system: MEL-HO
MZ2-MEL = test system: MZ2-MEL
MeWo = test system: MeWo
RPMI7951 = test system: RPMI7951
RVH-421 = test system: RVH-421
SkMel28 = test system: SkMel28
SkMel2 = test system: SkMel2
SkMel30 = test system: SkMel30
SkMel5 = test system: SkMel5
UACC257 = test system: UACC257
UACC62 = test system: UACC62
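Also: cell number obtained by counting DAPI-stained nuclei in high-throughput microscope images with image analysis software, screen run in 1,536-well plates.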

SMILES	cell count (COLO792) [%]	cell count (COLO800) [%]	cell count (COLO829) [%]	cell count (G361) [%]	cell count (IPC-298) [%]	cell count (IST-MEL1) [%]	cell count (LB2518-MEL) [%]	cell count (LOXIMVI) [%]	cell count (MEL-HO) [%]	cell count (MZ2-MEL) [%]	cell count (MeWo) [%]	cell count (RPMI7951) [%]	cell count (RVH-421) [%]	cell count (SkMel28) [%]	cell count (SkMel2) [%]	cell count (SkMel30) [%]	cell count (SkMel5) [%]	cell count (UACC257) [%]	cell count (UACC62) [%]
C[C@@H](N)c1ccc(C(=O)Nc2ccnc3[nH]ccc23)cc1 + COC(=O)c1sccc1S(=O)(=O)Nc1ccc(Nc2ccccc2)cc1OC [GSK0660] (partner dose 1 µM)	98.6	138	101	127	111	100	119	62.3	93.8	78.3	99.5	78	64	82.3	109	107	78.8	83.2	78
Cn1sc(=O)n(Cc2ccccc2)c1=O + O=C(O)c1ccc(-c2c[nH]c3ncc(-c4ccccc4)cc23)cc1C1CCCC1 [GSK650394] (partner dose 0.16 µM)	102	93.4	99.9	91.6	102	93.1	99.2	103	93.2	101	93.7	95.9	95.9	92.5	90.9	93.6	96.3	87.6	101
C[C@@H](N)c1ccc(C(=O)Nc2ccnc3[nH]ccc23)cc1 + Cn1cncc1[C@@](N)(c1ccc(Cl)cc1)c1ccc2c(c1)c(-c1cccc(Cl)c1)cc(=O)n2C [tipifarnib] (partner dose 0.01 µM)	96.1	126	73.5	102	107	101	85.9	64.3	65.8	91.7	80.7	74.9	60	81.7	87.5	98.9	91.5	68.1	76
C[C@@H](N)c1ccc(C(=O)Nc2ccnc3[nH]ccc23)cc1 + CN(C)S(=O)(=O)c1ccc2c(c1)/C(=C/c1cc3c([nH]1)CCCC3)C(=O)N2 [SU6656] (partner dose 0.4 µM)	78.7	191	102	99.2	99.2	88.6	117	77.5	80.4	87.2	78	66.8	65.1	90.1	97.7	147	85.5	69.6	69.2
C[C@@H](N)c1ccc(C(=O)Nc2ccnc3[nH]ccc23)cc1 + O=C(O)c1ccc(-c2c[nH]c3ncc(-c4ccccc4)cc23)cc1C1CCCC1 [GSK650394] (partner dose 0.16 µM)	98.1	83.1	97.6	116	103	92.4	95.5	62.5	70.4	90.1	54.3	89.2	103	86.7	103	107	81.6	87.3	88.4
Cn1sc(=O)n(Cc2ccccc2)c1=O + NC(=O)Nc1cc(-c2cccc(F)c2)sc1C(=O)N[C@H]1CCCNC1 [AZD7762] (partner dose 0.02 µM)	103	99.7	114	104	108	113	141	110	96.1	114	98.7	112	109	122	114	86.5	103	108	96.5
C[C@@H](N)c1ccc(C(=O)Nc2ccnc3[nH]ccc23)cc1 + Cc1ccc(NC(=O)c2cccc(N(C)C)c2)cc1NC(=O)c1ccc(O)cc1 [ZM336372] (partner dose 2 µM)	114	104	112	102	87.2	91.2	91.3	87.3	75.2	65.6	94.5	60.9	58.3	103	96.9	97.4	81.6	86.4	86.2
CCCCCCCCCCCCCCCCCCOP(=O)([O-])OC1CC[N+](C)(C)CC1 [Perifosine] + CCc1ccc(CCOc2ccc(CC3SC(=O)NC3=O)cc2)nc1 [pioglitazone] (partner dose 2 µM)	98.5	121	98.5	90.5	97.9	87.9	36.8	87.9	99.7	102	92.1	59.9	106	63.6	86.5	63	112	96.8	79.2
CCCCCCCCCCCCCCCCCCOP(=O)([O-])OC1CC[N+](C)(C)CC1 [Perifosine] + COc1ccc2c(c1)CCC1C2CCC2(C)C(NCCCCCCN3C(=O)C=CC3=O)CCC12 [U73122] (partner dose 0.4 µM)	89.8	129	85.2	106	100	104	101	74.7	83.6	93.9	105	51.4	144	97.9	93.5	126	91.5	102	92.2
Cn1sc(=O)n(Cc2ccccc2)c1=O + CN(NC(=O)CC(=O)NN(C)C(=S)c1ccccc1)C(=S)c1ccccc1 [STA4783] (partner dose 0.006 µM)	81.7	46	73.7	79.2	96.7	75.2	74.8	103	90.9	101	91.8	96.8	76.2	92.6	97.4	93.9	100	94	61.5
C[C@@H](N)c1ccc(C(=O)Nc2ccnc3[nH]ccc23)cc1 + CC1(C)NC(=O)N(c2ccc([N+](=O)[O-])c(C(F)(F)F)c2)C1=O [nilutamide] (partner dose 1 µM)	93.6	138	113	99.5	96.9	122	118	90.3	101	95.4	77.6	84.1	70.8	70.4	110	120	81.2	86.8	93.9
Cn1sc(=O)n(Cc2ccccc2)c1=O + Oc1nc(-c2ccc(C(F)(F)F)cc2)nc2c1CSCC2 [XAV939] (partner dose 2 µM)	76.1	68.9	97.4	92.6	103	95.4	88.4	154	79.7	107	100	66.5	86.4	87.1	105	105	79.3	69.2	85.6
C[C@@H](N)c1ccc(C(=O)Nc2ccnc3[nH]ccc23)cc1 + COc1cc(N2CCC(N3CCN(C)CC3)CC2)ccc1Nc1ncc(Cl)c(Nc2ccccc2S(=O)(=O)C(C)C)n1 [NVP-TAE684] (partner dose 0.08 µM)	98.4	95.8	98.4	94.7	106	102	102	92.1	89.3	81.6	85.3	80.5	131	68.5	109	116	79.1	77.9	99.7
C[C@@H](N)c1ccc(C(=O)Nc2ccnc3[nH]ccc23)cc1 + O=C(O)C(=O)Nc1sc2c(c1C(=O)O)CCNC2 [TCS401] (partner dose 1.66667 µM)	103	145	99.1	99.2	105	102	106	84.1	84.8	79.8	75.8	89.3	111	61.4	100	116	91.6	54.7	85.2
Cn1sc(=O)n(Cc2ccccc2)c1=O + O=S(=O)(c1ccccc1)N(CC(F)(F)F)c1ccc(C(O)(C(F)(F)F)C(F)(F)F)cc1 [T0901317] (partner dose 1.4 µM)	92.9	111	97.7	93.2	92.7	93.4	118	110	96.7	101	87.6	98.2	95.7	95.4	98.7	93.7	84.1	84.6	77.6
C[C@@H](N)c1ccc(C(=O)Nc2ccnc3[nH]ccc23)cc1 + C[C@@H]1CCN(C(=O)CC#N)C[C@@H]1N(C)c1ncnc2[nH]ccc12 [CP690550] (partner dose 1 µM)	87.7	195	99.9	122	106	110	122	67.1	55.7	88.5	92.3	89.8	64.8	83.2	105	121	97.2	79.7	117
Cn1sc(=O)n(Cc2ccccc2)c1=O + Cn1cncc1[C@@](N)(c1ccc(Cl)cc1)c1ccc2c(c1)c(-c1cccc(Cl)c1)cc(=O)n2C [tipifarnib] (partner dose 0.01 µM)	94.1	110	90	84	93.7	101	69.5	111	105	96	107	89.8	91.6	91.1	82.4	96.2	98.6	83.4	74.5
CCCCCCCCCCCCCCCCCCOP(=O)([O-])OC1CC[N+](C)(C)CC1 [Perifosine] + Cn1cc(/C=C2\C(=O)Nc3cccnc32)c2ccccc21 [GW441756] (partner dose 0.4 µM)	86.1	93.3	82.3	89	95.7	92	91.3	74.8	99.8	95.5	105	84.5	122	87.4	113	86.5	86.9	76.9	96.2
Cn1sc(=O)n(Cc2ccccc2)c1=O + CC(C)CCN1c2nc(Nc3cc(F)c(O)c(F)c3)ncc2N(C)C(=O)C1C [BID1870] (partner dose 0.2 µM)	93.3	81.4	64.9	81	98.5	90.1	100	88	104	97.1	88.6	81	104	91.2	88.3	94.2	100	84.5	87.6
Cn1sc(=O)n(Cc2ccccc2)c1=O + Cc1cc(N2CCOCC2)cc2[nH]c(-c3c(NC[C@@H](O)c4cccc(Cl)c4)cc[nH]c3=O)nc12 [BMS536924] (partner dose 0.2 µM)	76.5	44.4	93.3	74.7	96.7	102	94.4	120	97.2	94.2	103	106	85.2	88.5	96.3	104	91.3	75.5	87.3
